This is one part of the list.
Target: T1, OsWOX13 (Oryza sativa, UniProt Q5QMM3 1-267)
T1 sequence: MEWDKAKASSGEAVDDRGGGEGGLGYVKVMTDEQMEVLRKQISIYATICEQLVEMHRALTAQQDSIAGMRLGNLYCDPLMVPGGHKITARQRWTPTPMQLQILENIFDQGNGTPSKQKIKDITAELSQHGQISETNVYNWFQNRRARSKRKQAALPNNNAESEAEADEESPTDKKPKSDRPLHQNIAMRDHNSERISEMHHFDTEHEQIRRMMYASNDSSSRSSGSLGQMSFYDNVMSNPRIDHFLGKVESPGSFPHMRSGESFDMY
Assay: protein-binding microarray (RPBM); PBS, 2% BSA, 51.3 ng/ul salmon testes DNA, 50 uM zinc acetate, 200 nM TF, 25 C, 1 h; high values mean tight binding
Settings: protein: recombinant; tags: N-terminal polyhistidine and DsRed monomer fusion (pET32a); label: CyDye5-dUTP incorporated in the synthesized complementary strand; 3' TTTTT single-stranded linker to array surface; dsDNA, one strand shown
Summary of the method: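 Polyhistidine-tagged DsRed fusions of transcription factors, joined at the N-terminus, were expressed in E. coli BL21-CodonPlus and isolated on Ni–NTA. They were incubated at 200 nM for 1 h at 25 °C on a custom Agilent array, double-stranded and BSA-blocked, in PBS with 2% BSA, salmon testes DNA and 50 µM zinc acetate. The binding signal is per-feature fluorescence intensity (arbitrary units) read on an Axon 4000B scanner after washing.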

Sequence	binding signal
CAAAATTTTGTTATTGCTAAAATTTGGTAAGGTTTATTTTCGGAGTCACCTAGTGCAG	9750 fluorescence intensity (a.u.)
ATCACCGACTAATTAATTAATTAATTAATCATCCTTGATTCGGAGTCACCTAGTGCAG	38800 fluorescence intensity (a.u.)
GGGGATTAGATCGAACTGTTCGTCTGTTCCCCTCGCCCCTCGGAGTCACCTAGTGCAG	7540 fluorescence intensity (a.u.)
GGAGATGATGAGCTGGTCAAGCTCTACCTTGATCGCGAGGCGGAGTCACCTAGTGCAG	5320 fluorescence intensity (a.u.)
TCACTCTGTTAGACACCGTTAATTTTGTCAAAATGACCAACGGAGTCACCTAGTGCAG	4490 fluorescence intensity (a.u.)
CTAATTAATCCGTCATTAGCAAATGTTTATTATAGCACCACGGAGTCACCTAGTGCAG	13900 fluorescence intensity (a.u.)
TTCCTCCGTATATATCAATCATCGCCCAACTCCAGCTCCCCGGAGTCACCTAGTGCAG	7080 fluorescence intensity (a.u.)
TGAGATAAAATGTGATTTTAGACTTGAGTGGCAAATGGTACGGAGTCACCTAGTGCAG	4000 fluorescence intensity (a.u.)
TTTGCTTAGATTAATCTGTCAAGAACAGTTTCGCCGCTAGCGGAGTCACCTAGTGCAG	6090 fluorescence intensity (a.u.)
ACATAATCCAATCAAGTCTTTGGTTACTACAAATAGAGGCCGGAGTCACCTAGTGCAG	14000 fluorescence intensity (a.u.)
CTTAATTTGCCAGCTGCTTGTGTGTTCTCCTTGCCGATCCCGGAGTCACCTAGTGCAG	27700 fluorescence intensity (a.u.)
ACCTGATGGACCGACCTTCCTCTTATTTTCTTGGATAATTCGGAGTCACCTAGTGCAG	5970 fluorescence intensity (a.u.)
TATTGTCAAATGATATTAATTGATTATGCTGGGGCTAACACGGAGTCACCTAGTGCAG	30700 fluorescence intensity (a.u.)
GACGGATTGCTTTGTGCATTGTCAATCAGTACATCCTCTTCGGAGTCACCTAGTGCAG	7970 fluorescence intensity (a.u.)
CTAGATTTATAATTAAATAAATTATTATAATATATAACTCCGGAGTCACCTAGTGCAG	42700 fluorescence intensity (a.u.)
GGCCGATTGATTGGGTCCGAGTAATCTCGGAAATGTGGGGCGGAGTCACCTAGTGCAG	53600 fluorescence intensity (a.u.)
TAGGCAATTACGGGCTGAAATTACCAGAAGCTACGGGTCACGGAGTCACCTAGTGCAG	17000 fluorescence intensity (a.u.)
TGTTATAATAATGTGTGATTAAGTTTTAATTATTACAAACCGGAGTCACCTAGTGCAG	20900 fluorescence intensity (a.u.)
TTTAATCAACCCGTGATTTTGTAATTCATATCCATTCATCCGGAGTCACCTAGTGCAG	8690 fluorescence intensity (a.u.)
AATATGATTATTCATAGAGTAAAGTGTACGGGCGATCCTTCGGAGTCACCTAGTGCAG	9750 fluorescence intensity (a.u.)
TGACGGGATTCACTAATTGGAACTTGGTGTTGGGAGTCCCCGGAGTCACCTAGTGCAG	13900 fluorescence intensity (a.u.)

Sequence	binding signal
AGCCTATTTAGTCCATGATTAGCTATAAGTGCTACAGTAACGGAGTCACCTAGTGCAG	8930 fluorescence intensity (a.u.)
GTCAATTACTATCTATATACATTGTGGAAATATAAATAACCGGAGTCACCTAGTGCAG	3200 fluorescence intensity (a.u.)
TATATAAATTGGACGTGCGAGGCTGAGAGAGAGACGCACACGGAGTCACCTAGTGCAG	5470 fluorescence intensity (a.u.)
GTTTCAATTATTTGACATCCAACCCCACTTTTATTCACTTCGGAGTCACCTAGTGCAG	10600 fluorescence intensity (a.u.)
CACCATAATTGTATTATTCTAGTGCTTTATCACACAGAATCGGAGTCACCTAGTGCAG	11100 fluorescence intensity (a.u.)
CTCAAATTTAGATAGTTTGTCAACACTGACATTGATTCTCCGGAGTCACCTAGTGCAG	16800 fluorescence intensity (a.u.)
TCTAAGATTGGATTATAGTACGTACATTTGGGCCTTCCCTCGGAGTCACCTAGTGCAG	20100 fluorescence intensity (a.u.)
CTCATTTCCTCATTGATTATAAGCTTGAGCTTTACTTAGTCGGAGTCACCTAGTGCAG	3500 fluorescence intensity (a.u.)
TATAAATTTAGTCAAATTTAAAGCAGTTTGATTTTGACCACGGAGTCACCTAGTGCAG	26800 fluorescence intensity (a.u.)
TGCCAACTTATCCATCAATTGAGATTAATGATTTGGTCTTCGGAGTCACCTAGTGCAG	13900 fluorescence intensity (a.u.)
AGTTCTAATTAGTTTCAACTCGTACACGTAATTGCAATAACGGAGTCACCTAGTGCAG	13200 fluorescence intensity (a.u.)
CCAGTATAATCATTGACTTTTGTGTGCTTAATGCATTTTCCGGAGTCACCTAGTGCAG	5600 fluorescence intensity (a.u.)
CAGTGGAGGGTTGTGATTGGTTATGAAGAGAATGTTGGTGCGGAGTCACCTAGTGCAG	10200 fluorescence intensity (a.u.)
AGTGATGAATTAGCCACCCACAACCACCAACTCCCTGATACGGAGTCACCTAGTGCAG	3560 fluorescence intensity (a.u.)
TTATGAAATTATTATTTATTTTATTTGTGACTTTCTTTATCGGAGTCACCTAGTGCAG	5930 fluorescence intensity (a.u.)
TAGCAGTGACGGTAATTAGCGCTAACTAGCAATATTTTCCCGGAGTCACCTAGTGCAG	12400 fluorescence intensity (a.u.)
TTGGGCCCAGATTGATTTAAGAAAGCCCATTTAGGCCACTCGGAGTCACCTAGTGCAG	9800 fluorescence intensity (a.u.)
TCTAAATTTTATAGTTATTAAATAACTTTATCACAATAAACGGAGTCACCTAGTGCAG	6790 fluorescence intensity (a.u.)
CATAAACTGAAGCTCATAATTGTTTGTGAAATCGTTTATCCGGAGTCACCTAGTGCAG	16900 fluorescence intensity (a.u.)
GTCAATAGCTAAATTTATGATACTTATAACACATTGGAGGCGGAGTCACCTAGTGCAG	4030 fluorescence intensity (a.u.)
CAAATTTAAATTTGAATTATATCCGATTTAAATTTGAATTCGGAGTCACCTAGTGCAG	21800 fluorescence intensity (a.u.)

Sequence	binding signal
AGCAAATGATCCATCATCATGTATTTGCTAGTATTACAGTCGGAGTCACCTAGTGCAG	4330 fluorescence intensity (a.u.)
ATTACACAGATTGCATATAAATTGCGAGACAAATCTTTTACGGAGTCACCTAGTGCAG	10000 fluorescence intensity (a.u.)
ATTAATTATCTAATTAATTAATTAGCCCATCTGCTTACTTCGGAGTCACCTAGTGCAG	65000 fluorescence intensity (a.u.)
AATAAACTGCAAACTATAACCCCTACCAGGGTTCACAATTCGGAGTCACCTAGTGCAG	4460 fluorescence intensity (a.u.)
TGGTGATCGAAATTGTCAAGTGCTTGAGTAGATAGAGATTCGGAGTCACCTAGTGCAG	5460 fluorescence intensity (a.u.)
TTTTATTACCTTAATTTTACTTTGGATCACCTCGACTCTCCGGAGTCACCTAGTGCAG	4050 fluorescence intensity (a.u.)
ATCTTATTATTGTTATTTAATTTAGTTAAAATGAAATTCACGGAGTCACCTAGTGCAG	5810 fluorescence intensity (a.u.)
TTGATTTGAAAGGTACTACCTCTGTTTCAGGTTAGAAAGTCGGAGTCACCTAGTGCAG	3380 fluorescence intensity (a.u.)
ATACATTGATTAATCAGCCAGCCAGCCAGCCAGCCACTGACGGAGTCACCTAGTGCAG	28700 fluorescence intensity (a.u.)
AACAACAAATTTGGATGTCTGATTTGTTCTCAGGTTTGATCGGAGTCACCTAGTGCAG	30200 fluorescence intensity (a.u.)
TTCAAATTTTAATAATTTAAGATATTGATATTTAACTGTACGGAGTCACCTAGTGCAG	32500 fluorescence intensity (a.u.)
TTACTTCCATCATATAGTAATTGCATTTCTAGACAAATTACGGAGTCACCTAGTGCAG	3740 fluorescence intensity (a.u.)
TTAATTATTTTGCTGACATGATTTGTTTTCATTTCGTTGACGGAGTCACCTAGTGCAG	24100 fluorescence intensity (a.u.)
ACCAAATAGATTGATCGATCGCCCAGTTCGATTATTTATTCGGAGTCACCTAGTGCAG	36300 fluorescence intensity (a.u.)
AATATAGATAGTTAACACTAAATTGGAGGGAGTGCTCGCGCGGAGTCACCTAGTGCAG	7480 fluorescence intensity (a.u.)
TTGCTTTAACTAGCTGCTTAATTATATGTTCTTTGTATTTCGGAGTCACCTAGTGCAG	5230 fluorescence intensity (a.u.)
TCCATTCATGGCGGCTTAATTGGCGGTGTTGGCTATGGACCGGAGTCACCTAGTGCAG	10300 fluorescence intensity (a.u.)
CCAAACATAGATTAGCTAACTTTGCTCTACCAAGAAATTGCGGAGTCACCTAGTGCAG	7560 fluorescence intensity (a.u.)
GGTTCCACTATCAATCTTAGACAGTATAAACAGGTCAACACGGAGTCACCTAGTGCAG	5380 fluorescence intensity (a.u.)
GGTTGTATGACGTTAATTTATACCAGAACAGAACCGTCCTCGGAGTCACCTAGTGCAG	4860 fluorescence intensity (a.u.)
TTGAGTGACATGCAAATAATGAGGGGAGTTTAAAATCTACCGGAGTCACCTAGTGCAG	5670 fluorescence intensity (a.u.)

Sequence	binding signal
TAAACTAGTAGATAATTAACCAATTTGGAACATGTGCCAGCGGAGTCACCTAGTGCAG	15100 fluorescence intensity (a.u.)
ACCTGTTGATTGTTGTAGTTCACGGCCCAGTGGCATCCCCCGGAGTCACCTAGTGCAG	30300 fluorescence intensity (a.u.)
TTTTAGATTTGATATATGCATCAATACAGGTTGCCTCAAACGGAGTCACCTAGTGCAG	6460 fluorescence intensity (a.u.)
TGGAATTTATTTTAATTTTGATTTAGAATTTTGGTTAATACGGAGTCACCTAGTGCAG	4870 fluorescence intensity (a.u.)
TTAAAATGGTTAATCATGTATGCGAAAAGCTGTGGGCCTCCGGAGTCACCTAGTGCAG	15000 fluorescence intensity (a.u.)
CTGGAGATTGATCCCACCCAACGAACCAGCGACAAAAGGGCGGAGTCACCTAGTGCAG	19300 fluorescence intensity (a.u.)
TCTGATGAGGCCCATTACGAGAGAATCTGCTTCGGCCCAGCGGAGTCACCTAGTGCAG	5800 fluorescence intensity (a.u.)
TTTTGATTTAGATTTTGCCATACTATAATACGTCCGTCCTCGGAGTCACCTAGTGCAG	35300 fluorescence intensity (a.u.)
CTAGTGATGATTGGACGACACTTTCTTAATAATGAAAACACGGAGTCACCTAGTGCAG	37700 fluorescence intensity (a.u.)
TTTTAAAATAAATCTAGTCAAATTTAGGATATTTGACTTGCGGAGTCACCTAGTGCAG	4290 fluorescence intensity (a.u.)
ATCTTGTACATTGCACAAATTGACTATTGGTTTGTAGGAGCGGAGTCACCTAGTGCAG	4300 fluorescence intensity (a.u.)
TTTGAATGAAAATCAACTTTAAATTTGAGTTTGAAAATTCCGGAGTCACCTAGTGCAG	11000 fluorescence intensity (a.u.)
CGAATTATGTAATTTGTGTATAAAGTTTGATACGGATCGACGGAGTCACCTAGTGCAG	6310 fluorescence intensity (a.u.)
CCTTCAATTATACCTTCCAACCCACACTGTATGACCTGCCCGGAGTCACCTAGTGCAG	8920 fluorescence intensity (a.u.)
AGCTTTGATTTTCCTGGTATGACATGAAGCATTGTTCAGACGGAGTCACCTAGTGCAG	3430 fluorescence intensity (a.u.)
GTGGTTAATTAATTATATTGAAGCATACTAATTGAAGATACGGAGTCACCTAGTGCAG	39800 fluorescence intensity (a.u.)
AGGACATCAATCATGGGGAAACATAGGTTCCAACTTCCAACGGAGTCACCTAGTGCAG	23100 fluorescence intensity (a.u.)
TTTAAATTAAATATCATCTTTCATAATACATAATGTTAACCGGAGTCACCTAGTGCAG	17500 fluorescence intensity (a.u.)
AGTACTGTTGGATTGATGACGGTGAGTACATCCCCAAGCACGGAGTCACCTAGTGCAG	4750 fluorescence intensity (a.u.)
TCGTCAATAACAAATTTGTATTACTCATCAATATCTATAACGGAGTCACCTAGTGCAG	9320 fluorescence intensity (a.u.)
GCCTGATTATTTTGGATGATTTATGGGAGAACAGCTGTTTCGGAGTCACCTAGTGCAG	24400 fluorescence intensity (a.u.)

Source: paper PMC7819943, “Rice protein-binding microarrays: a tool to detect cis-acting elements near promoter regions in rice”
